In the RNAGym collection of RNA variant scans (doi:10.1093/nar/gkz1192):
The source gives no read counts; variants with many changes may rest on few reads.

B1: CPEB3 Ribozyme (parent)
chain: UAACAGGGGGCCACAGCAGAAGCGUUCACGUCGCAGCCCCUGUCAGAUUCUGGUGAAUCUGCGAAUUCUGCUGUAUAUCUC

Variants of: B1
Assay: self-cleavage, relative activity (ratio to wild type); higher = more cleavage; in vitro, sequencing
In short: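 Barcoded CPEB3 ribozyme mutants, produced by rounds of error-prone PCR, self-cleaved while being transcribed with T7 RNA polymerase for 5 hours at 37°C and during a subsequent 15 min DNase I step before EDTA was added. Sequencing of template-switched cDNA on Illumina gave cleaved and total reads, and DNA sequencing assigned barcodes to variants. Each variant's relative activity is its cleaved/total read fraction divided by the unmutated ribozyme's fraction, averaged across three batches. A variant needed a minimum of 5 reads.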

Variant	self-cleavage
UAACAGGGGGCCACAGCAAAGGCGUUCACGUCGCAGCCCCUGCCGGAUUCUGGUGAAUCCGCGAAUUCUGCUGUAUAACUC	0.15
UAACAGGGGGCCACAGCUGAAGCGUUCACGUCGCAGCCCCAGUCAGAUACUGAUGAAUCUGCGAAUUCUGCUGUAUAUCUC	0.09
UAACAGGGGGCCACAGCUGAAGCGUUCACGUCGCAGCCCCUGUCAGAUACUGGUGAACCUGCGAAUUCUGCUGUAUAUCUC	0.21
UAACAGGGGGCCACAGCUGAAGCGUUCACGUCGCAGCCCCUGUCAGAUCCUGGUGUAUCUGCGAAUUCUGCUGUAUAUCUC	0.27
UAACAGGGGGCCACAGCUGAAGCGUUCACGUCGCAGCCCCAGUCAGAAUCUGGUGAAUCUGCGAAUUCUGCUGUAUAUCUC	0.2
UAACAGGGGGCCACAGCUGAAGCGUUCACGUCGCAGCCCCUGCCAGAUUCUGGUGACUCUGCGAAUCCUGCUGUACAUCCC	0.1
UAACAGGGGGCCACAGCUGAAGCGUUCACGUCGCAGCCCCCCUCAGAUUCUGGUGAAUCUGCGAAUUCAGCUGUAUAUCUC	0.17
UAACAGGGGGCCACAGCUGAAGCGUUCACGUCGCAGCCCCUGUCAGAUUCUGGUGAACCUGCGAAUCCUGCUGUAUAUCAC	0.15
UAACAGGGGGCCACAGCUGAAGCGUUCACGUCGCAGCCCCUGUCAGAUUCCGGUGGAUCUGCGAUUUCUGCUGUAUACCUC	0.24
UAACAGGGGGCCACAGCAAAGGCGUUCACGCCGCAGCCCCUGUCAGUUUCUGGUGAAUCUGCGAAUUCUGCAGCAUAUCUC	0.05
UAACAGGGGGCCACAGCUGAAGCGUUCACGUCGCAGCCCCUGCCAGAUUCUGGUGAAUCUGCGAAUUCCGCUGUUUAUCUC	0.12
UAACAGGGGGCCACAGCUGAAGCGUUCACGUCGCAGCCCCUGUCAGAUUCAGGUGAAUCUGCGAAUUCUGCAGUAUAUCUC	0.17
UAACAGGGGGCCACAGCAAAAGCGUUCGCGUCGCAGCCCCUGUCAGAUUCUAGUGAAUCUGCGAAUUCUGCUGUAUAUCUC	0.13
UAACAGGGGGCCACAGCAAAGGCGUUCACGUCGCAGCCCCAGUCAGAUUCUGGUGAAUCUGCGAAUUCUGCUGUGUAUCUC	0.08
UAACAGGGGGCCACAGCUGAAGCGUUCACGUCGCAGCCCCAGUCAGAUUCUGGUGAAUCUGCGGAUUCUGCUGUUUAUCUC	0.09
UAACAGGGGGCCACAGCUGAAGCGUUCACGUCGCAGCCCCUGUCAGAUUCCGGUGAAUCUGCGAACUCUGCAGCAUAUCUC	0.19
UAACAGGGGGCCACAGCUGAAGCGUUCACGUCGCAGCCCCUGUCAGACUCUGGUGAAUCAGCGAAUUCUGCUGUAUAUCUC	0.53
UAACAGGGGGCCACAGCUGAAGCGUUCACGUCGCAGCCCCUGCCAGAUUCUGGUGUGUCCGCGAACUCUGCUGUAAAUCUC	0.19
UAACAGGGGGCCACAGCUGAAGCGUUCACGUCGCAGCCCCUGCCAGAUUCUGGUGAAUCUGCGAACUCUGCUGUUUACCUC	0.09
UAACAGGGGGCCACAGCUGAAGCGUUCACGUCGCAGCCCCAGUCAGAUUCUGGUGAAUCUGCGAAUUCUGCUGUAAAUCUC	0.05
UAACAGGGGGCCACAGCUGAAGCGUUCACGUCGCAGCCCCAGUCAGAUUCUGGUGAAUUUGCGAAUUCUGCUGUAUAUCUC	0.2
UAACAGGGGGCCACAGCAAAAGCGUUCGCGUCGCAGUCCCUGUCAGAUUCUGGUGAAUCUGCGAAUUCUGCUGUAUAUCUC	0.1
UAACAGGGGGCCACAGCAAUGGCGUUCACGUCGAAGCCCCUGUCGGAUUCUGGUGAAUCCGCGAAUUCUGCAGUAUAUCUC	0.11

Variant	self-cleavage
UAACAGGGGGCCACAGCUGAAGCGUUCACGUCGCAGCCCCGGUCAGGUUCUGGUGAAUCUGCGAAUUCUGCUGUAUAUCUC	0.29
UAACAGGGGGCCACAGCUGAAGCGUUCACGCCGCAGCCCCUGUCAGAUUCUGGUGAAUCUGCGAAUGCUGCUGUACAUCUC	0.18
UAACAGGGGGCCACAGCAAAAGCGUUCGCGUCGCAGCCCCUGUCAGUUUCUGGUGAGUCAGCGAAUUCUGCUGUAUUCCUC	0.06
UAACAGGGGGCCACAGCUGAAGCGUUCACGUCGCAGCCCCUGUCAGAUUCAGGUGGAUCUGCGAAUUCUGCUGUAUACCUC	0.19
UAACAGGGGGCCACAGCUGAAGCGUUCACGUCGCAGCCCCUGUCAGAUUCCGGUGAAUCUGCGAAUUCAGCUGUGUAUCUC	0.99
UAACAGGGGGCCACAGCUGAAGCGUUCACGUCGCAGCCCCUGUCAGACUCUGGUGAAUCUGCGAAUACUGCUGCAUAUCUC	0.21
UAACAGGGGGCCACAGCUGAAGCGUUCACGUCGCAGCCCCGGUCAGAUUCUGGUGAGUCAGCGAAUUCUGCUGUAUGUCUC	0.21
UAACAGGGGGCCACAGCUGAAGCGUUCACGUCGCAGCCCCGGCCAGAUUCUGGUGAAUCUGCGGACUCUGCUGUAUAUCCC	0.13
UAACAGGGGGCCACAGCUGAAGCGUUCACGUCGCAGCCCCUGUCAGAUUCUGGUGAAUCCGCGAAUUCCGCAGUGUAUCUC	0.2
UAACAGGGGGCCACAGCAAAAGCGUUCGCGUCGCAGCCCCCGUCAGAUUCUGGUGCAACUGCGGGUUCUGCUGUAUAUCUC	0.03
UAACAGGGGGCCACAGCUGAAGCGUUCACGUCGCAGCCCCUGUCAGAUUCUGGAGAACCUGCGAAUUCUGCUGUAUAUCUC	0.31
UAACAGGGGGCCACAGCUGAAGCGUUCACGUCGCAGCCCCGGUCAGAUUCUGGUGAAUCUGCGAAUUCUGCUGUAUAUCAC	0.28
UAACAGGGGGCCACAGCUGAAGCGUUCACGUCGCAGCCCCUGUCAGAUCCUGGUGAAUCUGCGGAUUCUGCUGUACAUCUC	0.2
UAACAGGGGGCCACAGCUGAAGCGUUCACGUCGCAGCCCCUGUCAGAUUCUGGUGAAACUGCGAAUUAUGCUGUAUAUCUC	0.18
UAACAGGGGGCCACAGCUGAAGCGUUCACGUCGCAGCCCCUGACAGAUUCAGGUGAAUCGGUGAAUCCUGCUGCAUAUCUC	0.45
UAACAGGGGGCCACAGCUGAAGCGUUCACGUCGCAGCCCCCGUCAGAUUCUGGUGAUUCUGCGAAUUCUGCUGUAUAUCUC	0.31
UAACAGGGGGCCACAGCAAGAGCGUUCACGACGCAGCCCCUGUCAGAUUCUGGUGAAUCUGCGAAUUCUGCUGUACUUCUC	0.13
UAACAGGGGGCCACAGCAAAGGCGUUCACGUCGCAGCCCCAGUCAGAUUCUGGUGGAUCUGCGUAUUCUGCUGUAUAUCUC	0.43
UAACAGGGGGCCACAGCUGAAGCGUUCACGUCGCAGCCCCUGCCAGACUCUGGUGAAUCUGCGAAUUCUGCUGUAUAUCUC	0.13
UAACAGGGGGCCACAGCUGAAGCGUUCACGUCGCAGCCCCAGUCAGAUUCUGGUGAAUCUGCGAAUUCUGCAGUAUAACCC	0.08
UAACAGGGGGCCACAGCUGAAGCGUUCACGUCGCAGCCCCUGUCAGAUUCUGGUGAAUCUGCGAAUACUGCUGUUUAUCUC	0.23
UAACAGGGGGCCACAGCAAAAGCGUUCGCGUCGCAGCCCCUGUCAGACUCUGGUGGAUCUGCGAAUUCUGCUGUAUAUCCC	0.1
UAACAGGGGGCCACAGCUGAAGCGUUCACGUCGCAGCCCCCGUCAGAUUCAGGUGAAUCUGCGAAUUCUGCUGUAUACCUC	0.62

Variant	self-cleavage
UAACAGGGGGCCACAGCAAAAGCGUUCUCGUCGCAGCCCCUGUCAGGUUCUGGUGAAUCUGCGAAUCCUGCUGUAUAUCUC	0.14
UAACAGGGGGCCACAGCUGAAGCGUUCACGUCGCAGCCCCUGUCAGAUUCUGGUGAAUCCGCGAAUUCUGCUGUAUACCUC	0.34
UAACAGGGGGCCACAGCUGAAGCGUUCACGUCGCAGCCCCUGUCAGAUUCAGGUGAAUCUGCGAAUUCUGCCGUAUAUCCC	0.28
UAACAGGGGGCCACAGCUGAAGCGUUCACGUCGCAGCCCCCGUCAGGUUCUGGUGACUCUGCGAAUUCUGCUGUAUAUUUC	0.49
UAACAGGGGGCCACAGCUGAAGCGUUCACGUCGCAGCCCCUGACAGAUUCUGGUGAAUCUGCGAACUCUGCUGUAUAUCUC	0.24
UAACAGGGGGCCACAGCUGAAGCGUUCACGUCGCAGCCCCUGACAGAUUCUGGUGAAUCUGCGAAGUCUGCUGUAUAUCUC	0.35
UAACAGGGGGCCACAGCUGAAGCGUUCACGUCGCAGCCCCCGUCCGAUUCUGGUGAAUCUGCGAAUUCUGCUGUAUAUCUC	0.55
UAACAGGGGGCCACAGCUGAAGCGUUCACGUCGCAGCCCCUGCCAGAUUCUGGUGAAUCUGCGAAUUCCGCUGUAUAUCAC	0.25
UAACAGGGGGCCACAGCAAAGGUGUUCGCGUCGCAGCCCCUGUCAGAUUCUGGUGAAUCUGCGAAUUCCGCUGUAUAUCUC	0.06
UAACAGGGGGCCACAGCUGAAGCGUUCACGCCGCAGCCCCUGUCAGAUUCUGGUGAAUCCGCGAAUUCUGCUGCAUAUCUC	0.13
UAACAGGGGGCCACAGCUGAAGCGUUCACGUCGCAGCCCCUGUCAGAUCCUGGUGGAUCUGCGAAUUCUGCUGAAUAUCUC	0.67
UAACAGGGGGCCACAGCUGAAGCGUUCACGUCGCAGCCCCUGUCAGAUUCCGGUGAAUCUGCGAACUCUGCUGUAUAUCUC	0.46
UAACAGGGGGCCACAGCUGAAGCGUUCACGUCGCAGCCCCUGUCAGAUUCUGGUGAAUCUGCGAAUCCUGCUGUAUAACUC	0.19
UAACAGGGGGCCACAGCUGAAGCGUUCACGUCGCAGCCCCUGUCAGAUUCUGGCGAAUCUGCGAAUUAUGCUGUAUAUCUC	0.22
UAACAGGGGGCCACAGCUGAAGCGUUCACGUCGCAGCCCCUGUCAGAUUCCGGUGAAUCUGCGAAUUCUGCUGUAUAUCCC	0.61
UAACAGGGGGCCACAGCUGAAGCGUUCACGUCGCAGCCCCAGUCAGAUUCUGGUGAAACUGCGAAUUCUACUGUAUAUCUC	0.16
UAACAGGGGGCCACAGCAAAAGCGUUCGCGCCGCAGCCCCUGUCAGAUUCUGGUGAAUCUGCGUAUUCUGCUGUAUAUCCC	0.41
UAACAGGGGGCCACAGCUGAAGCGUUCACGUCGCAGCCCCUGUCAGAUACUGGUGGAUCUGCGAAUUCUGCUGUAUAUCUC	0.2
UAACAGGGGGCCACAGCUGAAGCGUUCACGUCGCAGCCCCUGUCAGAUUCCGGUGAAUCUGCUAAUUCUGCUGUAUAUCUC	0.23
UAACAGGGGGCCACAGCUGAAGCGUUCACGUCGCAGCCCCUGUCAGAUCCAGGUGGAUCUGCGAAUUCUGCAGUAUGUCCC	0.45
UAACAGGGGGCCACAGCUGAAGCGUUCACGUCGCAGCCCCUGUCAGAUUCUGGCGAAUCUGCGAAUUCUGUCGUAUAUCUC	0.1
UAACAGGGGGCCACAGCUGAAGCGUUCACGUCGCAGCCCCUGCCAGAUUCUGGUGAAUCUGCGAAUUCUGCUGUAUAUCCC	0.35
